# Laboratory results taken from publication PMC4336329 (PLoS ONE, 2015).
# Hit rate of the full screen: of about 310,000 compounds, about 2,200 (0.71%) showed an effect of 50% or more. The effect is printed as a negative number. The list shows a part of the results.
# Target: human ether-à-go-go-related gene (hERG) potassium channel (human, UniProt Q12809)
# Assay: primary screen, population patch clamp on CHO cells stably expressing hERG
# Sequence of human ether-à-go-go-related gene (hERG) potassium channel (Q12809 whole entry, looked up): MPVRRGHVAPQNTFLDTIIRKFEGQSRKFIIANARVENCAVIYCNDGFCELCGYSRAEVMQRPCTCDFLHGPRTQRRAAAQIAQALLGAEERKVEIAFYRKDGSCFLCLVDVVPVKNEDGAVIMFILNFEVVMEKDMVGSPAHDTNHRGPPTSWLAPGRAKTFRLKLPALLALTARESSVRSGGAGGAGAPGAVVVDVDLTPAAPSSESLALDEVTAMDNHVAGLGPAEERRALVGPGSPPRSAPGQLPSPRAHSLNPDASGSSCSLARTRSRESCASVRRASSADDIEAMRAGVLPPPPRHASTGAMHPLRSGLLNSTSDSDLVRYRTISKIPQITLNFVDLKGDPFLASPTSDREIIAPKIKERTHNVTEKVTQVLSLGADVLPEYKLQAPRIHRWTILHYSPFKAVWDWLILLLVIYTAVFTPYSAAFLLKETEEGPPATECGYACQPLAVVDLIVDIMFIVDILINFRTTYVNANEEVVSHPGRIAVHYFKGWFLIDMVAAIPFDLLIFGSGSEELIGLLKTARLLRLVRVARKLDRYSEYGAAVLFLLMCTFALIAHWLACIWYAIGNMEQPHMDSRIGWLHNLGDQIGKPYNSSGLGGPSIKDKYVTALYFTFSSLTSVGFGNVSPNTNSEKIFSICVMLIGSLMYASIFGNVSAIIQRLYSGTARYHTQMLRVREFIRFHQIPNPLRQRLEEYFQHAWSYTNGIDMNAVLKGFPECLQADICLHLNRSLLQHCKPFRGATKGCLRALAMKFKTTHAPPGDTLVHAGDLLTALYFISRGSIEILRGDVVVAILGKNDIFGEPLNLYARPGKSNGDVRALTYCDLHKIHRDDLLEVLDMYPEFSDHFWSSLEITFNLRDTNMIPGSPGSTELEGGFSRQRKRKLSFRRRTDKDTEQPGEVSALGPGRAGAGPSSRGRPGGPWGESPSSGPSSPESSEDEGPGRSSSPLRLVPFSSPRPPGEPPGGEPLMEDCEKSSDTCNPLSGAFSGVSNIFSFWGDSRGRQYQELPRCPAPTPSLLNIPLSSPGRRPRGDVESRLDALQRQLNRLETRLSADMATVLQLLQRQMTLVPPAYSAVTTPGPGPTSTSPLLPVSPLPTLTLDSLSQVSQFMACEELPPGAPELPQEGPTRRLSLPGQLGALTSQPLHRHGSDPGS
row,Structure (SMILES),"hERG current change (%, negative = inhibition) at 1uM"
1,Cc1ccccc1S(=O)(=O)Cc1ccc(C(=O)NCCCN(C)Cc2ccccc2)o1,-0.242%
2,CCc1cc2c(=O)nc3n(c2s1)Cc1ccccc1/C3=C(/O)c1ccc(F)cc1,-3.5%
3,O=C(c1ccccc1Cc1ccccc1)N1CCN(S(=O)(=O)c2ccc(F)cc2)CC1,14%
4,CCN=C(Nc1ccc2c(c1)OCO2)SC1CC(=O)N(c2ccc(OC)cc2)C1=O (stereo not shown),9.61%
5,Cc1cnc(C(=O)OCc2ccc(Br)cc2)cn1,12.9%
6,O=C(NC(=S)NCCc1ccccc1)c1ccco1,10.1%
7,CCOc1ccc(C2=Nn3c(nnc3-c3ccccn3)SC2)cc1,3.6%
8,Cc1csc2c(N3CCN(C(=O)NC(C)(C)C)CC3)ncnc12,12.7%
9,CC(C)n1cc(/C=C2/NC(=O)N(c3cccc(Cl)c3)C2=O)c2ccccc21,-0.492%
10,CCN(CC)c1ccc(NC(=O)OC)cc1,7.78%
11,O=C(CSc1nncs1)NCCCc1ccccc1,23.5%
12,CCOc1ncccc1C(=O)NCCN1C(=O)S/C(=C/c2cccs2)C1=O,9.27%
13,N#CCCN(C(=S)NC(=O)c1ccco1)c1ccccc1F,10.1%
14,CC(C)NC(=O)C(=O)Nc1ccc2c(c1)N(S(=O)(=O)c1cccs1)CCC2,14%
15,O=C(Nc1cccc(F)c1)c1ccc(S(=O)(=O)NCC2CCCO2)cc1 (stereo not shown),2.38%
16,Cc1cc([N+](=O)[O-])cc(/C=N\NC(=O)C2COc3ccccc3O2)c1O (stereo not shown),8.95%
17,CN(C(=O)c1ccc(Br)o1)C1CCCCC1,6.44%
18,O=C(CN1CCN(S(=O)(=O)c2ccccc2)CC1)NC(=O)NC1CCCCC1,1.63%
19,Cc1cc2nc3c(nc2cc1C)CCCC3,11.3%
20,CC(C)(C)c1ccc(C2=CC(c3ccccc3F)n3ncnc3N2)cc1 (stereo not shown),3.19%
21,COc1cc(C(=O)NCC(=O)N/N=C(/C)c2cccs2)cc(OC)c1OC,5.74%
22,CSS(=O)(=O)c1cccc2cccnc12,14.2%

row,Structure (SMILES),"hERG current change (%, negative = inhibition) at 1uM"
1,CC(C)(C)c1ccc(C(=O)NC(=S)Nn2cnnc2)cc1,14.5%
2,Cc1ccc(-c2c(NC(=O)c3ccco3)oc3ccccc3c2=O)cc1,25.7%
3,CCOC(=O)C(C)Oc1ccc(NC(=O)C(Cl)Cl)cc1 (stereo not shown),5.83%
4,CCOC(=S)N/C(=N\S(=O)(=O)c1ccc(C)cc1)c1ccccc1,11.6%
5,O=C(Nc1ccc(NC(=O)N2CCN(c3ccccc3O)CC2)cc1)N1CCN(c2ccccc2O)CC1,14.5%
6,Cc1cccc(Nc2ccccc2C(=O)OCC(=O)N(C)C2CCS(=O)(=O)C2)c1C (stereo not shown),1.68%
7,CC(C)OCCCNC(=O)c1cc(Sc2ccc(F)cc2)nc2ccccc12,3.36%
8,COc1cc(CNC2CCCCCC2)cc(OC)c1O.O=C(O)C(=O)O,16%
9,Cc1cc(Cl)ccc1C(=O)C1CCCN(C(=O)c2cc(C(C)C)no2)C1 (stereo not shown),0.288%
10,COC(=O)c1c(C(=O)OC)c2ccccn2c1C(=O)c1ccc([N+](=O)[O-])cc1,8.27%
11,CC1=Nc2ccccc2N=C(NC(=O)CSC(=S)N2CCN(C)CC2)C1c1ccccc1 (stereo not shown),9.3%
12,COc1ccc(NC(=O)CN(C)C(=O)c2ccc(NC3CC3)c([N+](=O)[O-])c2)cc1,-68.6%
13,Cc1ccc(N2C(=O)N(CC(=O)Nc3ccc(C)cc3C)C(=O)C2C)cc1 (stereo not shown),7.69%
14,COc1ccc(S(=O)(=O)Nc2cccc(N(C)S(C)(=O)=O)c2)cc1C,-6.27%
15,CCOC(=O)c1ccc(NC(=S)NNC(C)(C)C)cc1,13.8%
16,O=C(NN1C(=O)/C(=C/C=C/c2ccco2)SC1=S)c1ccncc1,8.9%
17,COc1ccccc1/C=C1\SC(=S)N(CCC(=O)NNC(=O)c2ccccc2OC)C1=O,19.4%
18,CN(C)S(=O)(=O)c1ccc(NC(=O)CN2CCOCC2)cc1,14.3%
19,CCCCC(CC)Cn1c(O)c(/C=C2\C=NN=C2c2ccccc2)sc1=S (stereo not shown),13.6%
20,CC(=O)Nc1ccc(CC(=O)O)cc1,6.86%
21,C[C@]12CCC(=O)C=C1CC[C@@H]1[C@@H]2[C@@H](O)C[C@@]2(C)[C@H]1CC[C@]2(O)C(=O)COC(=O)CCC(=O)O,2.01%
22,CCOc1ccc(C2C(C#N)=C(N)N(N(C)C)C3=C2C(=O)CCC3)cc1 (stereo not shown),4.92%

row,Structure (SMILES),"hERG current change (%, negative = inhibition) at 1uM"
1,Cn1c(=O)c2c(nc(Cl)n2Cc2ccncc2)n(C)c1=O,9.41%
2,CCOC(=O)c1[nH]cnc1N=Nc1c(O)ccc2ccccc12,20.1%
3,CCN1C(=O)/C(=C/c2ccc(OC)c(OC)c2)N=C1SCC(=O)NCc1ccco1,7.53%
4,Cc1ccc(N(Cc2ccccc2)C(=O)c2cc(S(=O)(=O)N3CCOCC3)ccc2F)cc1,13.3%
5,COC1(OC)N=C(N)C2(C#N)C(c3ccc4c(c3)OCO4)C12C#N (stereo not shown),5.72%
6,O=C(/C=C/c1ccc(Cl)c([N+](=O)[O-])c1)NCc1cccnc1,4.87%
7,CC(=O)c1c(C)[nH]c(C(=O)OCc2ccccc2)c1C,6.42%
8,CN(C)CC(C)(C)CNC(C(=O)Nc1ccc(Cl)cc1C(F)(F)F)c1ccccc1 (stereo not shown),-72.3%
9,COC(=O)c1ccc(NC(=O)COc2ccc(S(=O)(=O)NC(C)C)cc2)cc1,6.03%
10,COc1ccc(Cl)cc1N1C(=O)C2CCCN2C1c1ccc(F)c(F)c1 (stereo not shown),9.22%
11,O=C(CCl)Nc1ccccc1C(=O)Nc1ccc2c(c1)OCO2,13.7%
12,COc1ccc(OC)c(NC(=O)CCNS(=O)(=O)c2ccc3c(c2)c(=O)n(C)c(=O)n3C)c1,7.79%
13,CCN(CC(=O)Nc1ccc(NC(C)=O)cc1)C(=O)CSCc1c(C)noc1C,6.09%
14,CC(C)(C)SCCNC(=O)CN(c1ccc(F)c(Cl)c1)S(C)(=O)=O,11.5%
15,COc1cc(CN2CCN(Cc3ccccc3C(F)(F)F)CC2)cc(OC)c1OC.O=C(O)C(=O)O,6.8%
16,CC1(C(=O)OCC(=O)Nc2ccc(C(N)=O)cc2)CC1(Cl)Cl (stereo not shown),12.2%
17,CCOC(=O)COc1c(Br)cc(/C=C2\SC(=O)N(CC(=O)N3CCCC3)C2=O)cc1OC,-0.0712%
18,COC(=O)c1sccc1NC(=O)CC1C(=O)NCCN1C(=O)Nc1ccccc1 (stereo not shown),10.5%
19,CC(Sc1nn(-c2ccccc2)c(=S)s1)C(=O)NCC1CCCO1 (stereo not shown),4.03%
20,CC1CCc2sc(C(=O)NNC(=S)NC3CC3)cc2C1 (stereo not shown),6.68%
21,CCOC(=O)Cc1nnc(NC(=O)CSc2nncn2C)s1,2.8%
22,COc1ccc(C(CNC(=O)COc2cc(C)c(Cl)c(C)c2)N2CCCCC2)cc1 (stereo not shown),10.8%

row,Structure (SMILES),"hERG current change (%, negative = inhibition) at 1uM"
1,O=C(Nc1ccc2c(c1)OCO2)c1ccc(CO)cc1,12.1%
2,O=C(CSc1nnnn1-c1ccc2c(c1)OCCO2)N1CCN(C(=O)c2ccco2)CC1,1.93%
3,S=C(NCCSCc1ccc(Cl)c(Cl)c1)Nc1ccccc1,15.7%
4,COC(=O)c1c(C#N)c(N)nc2c1CCC2,15.5%
5,O=C(c1cc(F)ccc1F)C1CCCN(CCCc2ccccc2)C1 (stereo not shown),-76.6%
6,CC(=O)N1CCN(C(C)=O)C1c1ccccc1,11.3%
7,COc1ccc(Cn2c(O)c(C=Nc3ccc(O)cc3)c3ccccc3c2=O)cc1,8.8%
8,O=C(CCC1CCCCC1)NCc1ccc(F)cc1,6.93%
9,Nc1nc2ccccc2n1C(=O)c1ccc(F)cc1,7.63%
10,CCOc1ccc(CN2CCN(Cc3cnc(-c4ccccc4)s3)CC2CCO)cc1 (stereo not shown),-90.1%
11,CCC(C)(O)c1[nH]c2ccc(C(F)(F)F)cc2c1C (stereo not shown),19.3%
12,CC(O)c1cccc(N=Cc2ccc3ccccc3c2O)c1 (stereo not shown),15.6%
13,CN(C)C(=N)N=C(N)N.Cl,14.8%
14,C/C(=N\Nc1cc(C)nc(-c2ccccc2O)n1)c1ccccc1,11.1%
15,COCCOC(=O)c1c(C)n(C)c2ccc(OC(=O)N3CCOCC3)cc12,3.62%
16,C=CCN(c1ccccc1)S(=O)(=O)c1cccc(C(=O)NCC2CCCO2)c1 (stereo not shown),-0.421%
17,COc1ccc(/C=C/C(=O)OCC(=O)Nc2cc(C(F)(F)F)ccc2Cl)cc1,-4.25%
18,Cc1cccc(NC(=O)NC2CC(=O)N(c3ccc4c(c3)OCCO4)C2)n1 (stereo not shown),7.82%
19,CCC(C)C(=O)N1c2ccccc2C(=C2SC(C(=O)OC)=C(C(=O)OC)S2)C(=S)C1(C)C (stereo not shown),2.74%
20,Nn1c(SCC(=O)NCC2CCCO2)nnc1-c1ccc(OC(F)F)cc1 (stereo not shown),-24.9%
21,c1ccc(Nc2cc(Nc3ccccc3)[nH]n2)cc1,3.66%
22,CC1(C)CC(=O)C2=C(C1)OC(N)=C(C#N)C2c1ccc2c(c1)OCO2 (stereo not shown),5.79%
